The whole screen tested about 320,000 compounds, of which about 7,600 (2.4%) were called active. This list was built around the results that the source calls inconclusive (neither active nor inactive); the mix of calls is not that of the screen. The call rests on the fitted dose curve; in most records, active means well fitted activation curve with a large enough effect; inconclusive means small, poorly fitted or top-dose-only effect; inactive means no such curve, though single readings can be large or run the other way. No potency is given beside an inconclusive call; the fits are too rough.
Test: qHTS Assay for NPC1 Promoter Activators; further: nearly all actives have a fitted effect of over 60% in size; on activation: % of control where 0% means no effect
Settings: Huh7 NPC1 promoter luciferase reporter, 24 h; series mostly up to 9.22 µM; activation: at the top concentration
How it was run: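 Luminescence from an NPC1 promoter-driven luciferase reporter in stably transfected Huh7 cells was measured after 24 h compound treatment at 37 °C, followed by 10 min ambient incubation with luciferase detection reagent.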
With `CCn1cc(C(=O)N[C@H](C(=O)NCCN2CCOCC2)C(C)C)c(=O)c2cc3c(cc21)OCO3` the “activation” value was inactive: -2.14%.
For `COc1ccc(OCc2cc(C(=O)N3CCCCCC3)no2)c(Cl)c1`, the Potency was inconclusive [activator, single point].
In the case of `O=[N+]([O-])c1cccc(NNS(=O)(=O)c2ccccc2F)c1`, the Potency is reported as inconclusive [activator, single point].
For `CC(C)N(C(C)C)S(=O)(=O)c1ccc(NC(=O)c2cnccn2)cc1`, the “activation” value was inactive: -3.59%.
For `O=C(c1ccc(CSc2ccccc2)cc1)N1CCCCCC1`, the Potency was inconclusive [activator, single point].
With `O=C(Cc1ccccc1)Nc1ccc(CN2CCOCC2)cc1` the Potency was inconclusive [activator, single point].
For `COCCCN=C1NN=C(c2cc(C)n(-c3ccccc3F)c2C)CS1`, the Potency was inconclusive [activator, partial curve].
In the case of `Cc1cc(SCC(=O)c2cccc([N+](=O)[O-])c2)nc(=O)[nH]1`, the Potency is reported as inconclusive [activator, partial curve].
With `CC(C)(C)c1cc(-c2ccccc2)no1` the “activation” value was inactive: -0.743%.
With `O=C(NC(=S)Nc1cccc(CO)c1)c1ccc(-c2ccccc2)cc1` the Potency was active: 1 µM.
With `NC(=O)CSc1nc(-c2ccccc2Cl)ns1` the Potency was inconclusive [activator, single point].
In the case of `Cc1cc(NC(=O)c2ccccc2Cl)no1`, the Potency is reported as inconclusive [activator, single point].
In the case of `COc1ccc(C(=O)Nc2nc(C)c(C)s2)cc1OC`, the Potency is reported as inconclusive [activator, partial curve].
In the case of `CCC(C)NC(=O)c1ccc2c(c1)S(=O)(=O)c1ccccc1C2=O` (centres undefined), the Potency is reported as inconclusive [activator, single point].
For `CCOC(=O)CC/C(=N\NC(N)=O)c1ccc(OC)c(Cl)c1`, the “activation” value was inactive: 3.72%.
For `COc1ccc(C2NC(=O)NC(c3ccccc3)=C2c2nc3ccccc3s2)cc1` (centres undefined), the “activation” value was inactive: -0.512%.
In the case of `CCCc1cc(=O)[nH]c(SCC(=O)Nc2ccc([N+](=O)[O-])cc2C#N)n1`, the “activation” value is reported as inactive: -0.542%.
With `CCn1nnnc1NC(=O)c1cccc(OC)c1` the Potency was inconclusive [activator, single point].
With `Cc1cccc(-n2ccnc2SCC(=O)Nc2nccs2)c1` the Potency was inconclusive [activator, single point].
For `Cc1cccc(/C(N)=N/OC(=O)c2cccnc2)c1`, the Potency was inconclusive [activator, full curve].
For `CCOc1ccc(NC(=O)c2ccccc2OC)cc1`, the Potency was inconclusive [activator, single point].
With `CCOc1cc(/C=C(\C#N)C(=O)Nc2ccc(S(N)(=O)=O)cc2)ccc1OCCN1CCOCC1` the Potency was inconclusive [activator, single point].
In the case of `Cc1noc(C)c1/C=N/Nc1ccc2ccccc2n1`, the Potency is reported as active: 2.82 µM.
For `Cc1ccc(-n2c(C)cc(C(=O)Cn3nc(C(=O)O)c4ccccc4c3=O)c2C)cc1`, the “activation” value was inactive: 0.325%.
In the case of `COc1ccc(NC(=O)c2ccc3ccccc3c2)cc1`, the Potency is reported as active: 0.708 µM.
For `COc1cccc(OCC(Cn2c(C)nc3ccccc32)OC(C)=O)c1` (centres undefined), the “activation” value was inactive: -5.6%.
With `COC(=O)c1ccc(COc2ccccc2/C=C(\C#N)C(=O)Nc2ccc(C)cc2)cc1` the Potency was inconclusive [activator, single point].
For `Cc1cc(C)cc(NC(=O)C(=O)NCCCN2CCCC2=O)c1`, the Potency was inconclusive [activator, partial curve].
In the case of `N#Cc1c(N2CCOCC2)nsc1-c1ccc(C(F)(F)F)cc1`, the Potency is reported as inconclusive [activator, partial curve].
With `Cc1nc(SCc2ccc(OCCC(C)C)cc2)n[nH]1` the Potency was inconclusive [activator, partial curve].
With `Cc1ccc(-c2nnc(SCC(=O)N3CCCC3)o2)cc1` the Potency was inconclusive [activator, partial curve].
With `Cc1ccsc1/C=N\NC(=O)c1n[nH]c2c1CCC2` the Potency was active: 1 µM.
In the case of `C=CCNC(=S)Nc1c(C(=O)OC)[nH]c2cc(OC)ccc12`, the Potency is reported as inconclusive [activator, partial curve].
For `CCOC(=O)c1ccc2nc(NC(=O)C(C)C)sc2c1`, the Potency was active: 1.12 µM.
In the case of `C/C(=N\O)c1ccc(N2C(=O)C3CC=C(Cl)CC3C2=O)cc1` (centres undefined), the Potency is reported as inconclusive [activator, partial curve].
With `Clc1cccc(/C=N/N2CCN(Cc3ccccc3)CC2)c1` the Potency was inconclusive [activator, single point].
In the case of `Cc1ccc(CC(=O)Nc2nc3ccccc3s2)cc1`, the Potency is reported as inconclusive [activator, single point].
For `COC(=O)c1ccc(COC(=O)c2ccc(SC)cc2OC)cc1`, the Potency was inconclusive [activator, partial curve].
For `O=C(/C=C/c1ccc(S(=O)(=O)N2CCOCC2)cc1)NCCc1ccc(C(F)(F)F)cc1`, the “activation” value was inactive: -4.06%.
In the case of `CN1N=C2c3ccccc3CCC2C1c1ccc(F)cc1` (centres undefined), the Potency is reported as inconclusive [activator, partial curve].
In the case of `COc1ccc(Cl)cc1NC(=O)c1ccco1`, the “activation” value is reported as inactive: 16%.
With `O=C1NC(c2ccc(Br)cc2)Oc2ccccc21` (centres undefined) the “activation” value was inactive: -0.0608%.
In the case of `Cc1c(/C=C/C(=O)c2ccc(O)cc2)cnn1C`, the Potency is reported as inconclusive [activator, single point].
In the case of `c1cc2c3c(cccc3c1)NC(c1ccc3c(c1)OCO3)N2`, the Potency is reported as inconclusive [activator, single point].
For `Cc1cc(C(=O)NCCc2ccc(Cl)cc2)c(C)o1`, the Potency was inconclusive [activator, partial curve].
In the case of `CSc1ccc(/C=N/N2CCN(c3ccccc3)CC2)cc1`, the Potency is reported as inconclusive [activator, partial curve].
For `CC(C)C[C@@H](CSc1ccc(Br)cc1)N1CCN(CC(C)C)CCC1=O`, the Potency was inconclusive [activator, single point].
For `O=C(COc1ccc(Cl)cc1)Nc1ncc([N+](=O)[O-])s1`, the Potency was active: 0.562 µM.
With `CC(C)C(=O)N1CCN(c2nc3ccc(Cl)cc3s2)CC1` the Potency was active: 2.51 µM.
With `O=C(NC(=S)Nc1ccc(Cl)cn1)c1cccs1` the Potency was inconclusive [activator, single point].
For `COc1ccc(/C=N/NC(=O)CCc2c(C)n[nH]c2C)cc1O`, the “activation” value was inactive: 1.52%.
For `CN(C)c1ccc(-n2cc3c(=O)n(C)c(=O)n(C)c3c2)cc1`, the Potency was inconclusive [activator, single point].
In the case of `Cc1cc2nc(N3CCN(C(=O)c4cccs4)CC3)sc2cc1C`, the Potency is reported as active: 3.98 µM.
In the case of `Cc1ccc(NC(=O)CCOc2ccccc2)cc1`, the Potency is reported as inconclusive [activator, partial curve].
With `C=CCn1nnnc1SCC(=O)Nc1cccc(OC)c1` the “activation” value was inactive: 1.17%.
With `CC(=O)Nc1sc(C)c(C)c1C(=O)OCCOc1ccccc1` the Potency was inconclusive [activator, single point].
In the case of `COc1ccc(-c2nnc(N(C)C(=O)c3cccnc3)s2)cc1`, the Potency is reported as inconclusive [activator, partial curve].
With `O=C(Nc1ccc2c(c1)OCO2)c1ccc(Br)o1` the Potency was active: 2.51 µM.
In the case of `O=C(Nc1nc2c(s1)CCCC2)c1cccnc1`, the Potency is reported as active: 2.51 µM.
In the case of `O=c1[nH]c(C2CCN(S(=O)(=O)c3ccccc3C(F)(F)F)CC2)nc2c1nnn2Cc1ccccc1`, the “activation” value is reported as inactive: -1.58%.
In the case of `C/C(=N\Nc1ccc([N+](=O)[O-])cc1)c1ccco1`, the Potency is reported as inconclusive [activator, single point].
In the case of `CNS(=O)(=O)c1cccc(C(=O)OCc2cc(=O)oc3c(C)c(O)ccc23)c1`, the “activation” value is reported as inactive: -6.85%.
In the case of `Cc1ccc(-n2c(=S)[nH]c3sc4c(c3c2=O)CCc2ccccc2-4)cc1`, the “activation” value is reported as inactive: -1.25%.
With `Cc1nc2cc(NC(=O)Nc3cccc4ccccc34)ccc2n1C` the Potency was active: 3.16 µM.
For `Cn1cnnc1SCC(=O)c1c[nH]c2ccccc12`, the Potency was inconclusive [activator, partial curve].
In the case of `COc1ccccc1NC(=O)CSc1nccc(-c2ccco2)n1`, the “activation” value is reported as inactive: 10.1%.
In the case of `Cc1cc(/C=C(\C#N)C(=O)Nc2ccccc2)c(C)n1-c1cccnc1`, the Potency is reported as inconclusive [activator, single point].
In the case of `COCC1CCCN(C(=O)c2ccc3nc(Cc4cccc(Cl)c4)oc3c2)C1` (centres undefined), the Potency is reported as active: 3.16 µM.
For `COc1ccc(NC(=O)/C=C/c2ccc3c(c2)OCO3)cc1`, the Potency was inconclusive [activator, partial curve].
With `O=C(c1ccc(F)cc1)c1cc2ccccc2o1` the Potency was inconclusive [activator, single point].
For `Cc1cccc(C(=O)CC(=O)c2cc(Cl)ccc2O)c1`, the “activation” value was inactive: -2.21%.
With `O=C(CSc1nncs1)Nc1ccc(S(=O)(=O)N2CCCC2)cc1` the “activation” value was inactive: -1.25%.
With `CC1CC1C(=O)OCC(=O)Nc1ccc(N=Nc2ccccc2)cc1` (centres undefined) the Potency was active: 3.16 µM.
In the case of `CCCS(=O)(=O)N1CCC(C(=O)NC2CCC(C)CC2)CC1` (centres undefined), the Potency is reported as inconclusive [activator, single point].
For `Clc1ccc(-c2csc(Nc3cccnc3)n2)cc1`, the Potency was inconclusive [activator, single point].
In the case of `Cc1ccc(/C=C/C(=O)Nc2ccccc2C(N)=O)cc1`, the Potency is reported as active: 2.82 µM.
With `Cc1sc2nc(CC(=O)N3CCCC3)[nH]c(=O)c2c1C` the “activation” value was inactive: -3.8%.
With `COc1ccc(-c2nc3ccccc3s2)cc1O` the Potency was inconclusive [activator, single point].
For `Cc1ccc(NC(=S)NNC(=O)Nc2ccccc2)cc1`, the Potency was inconclusive [activator, partial curve].

From PubChem BioAssay AID485313 (National Center for Advancing Translational Sciences (NCATS), 2010)
Potency means the concentration at half of the fitted maximal effect; tags describe the fitted curve by direction and shape.
